Data: PubChem BioAssay AID1347417 (National Center for Advancing Translational Sciences (NCATS), 2020)
Screen size: about 120,000 compounds; about 5,300 (4.4%) were called active. This list was built around the results that the source calls inconclusive (neither active nor inactive); the mix of calls is not that of the screen. Calls follow the shape of the dose curve; as a rule, active = well fitted inhibition curve with a large enough effect; inconclusive = small, poorly fitted or top-dose-only effect; inactive = no such curve, though single readings can be large or run the other way. A potency beside an inconclusive call is a rough fit, not a confirmed value.

Assay: qHTS Primary assay for Inhibitors of Plasmodium falciparum Dd2 growth in vitro; also: nearly all actives have a fitted effect of over 65% in size
Conditions: P. falciparum Dd2 growth, SYBR Green, 72 h; series mostly up to 28.9 µM
Summary of the method: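 Infected erythrocytes (Dd2, 0.3% parasitemia, 2.5% hematocrit final) are added to compound in RPMI-1640/Albumax II medium, grown 72 h at 37C in low oxygen, then lysed with saponin/Triton-X containing SYBR Green and read by fluorescence.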
Potency is read from the fitted curve at half-maximal effect; tags tell the direction and shape of the fitted curve.

SMILES	Potency
CCOC(=O)N1CCC(NC(=O)c2cnn(-c3ccc(C)cc3C)c2C2CCN(C(=O)OC(C)(C)C)CC2)CC1	inconclusive: 1.12 µM [inhibitor, single point]
CN1CCC(N[C@H]2C[C@@H](Cc3cc(-c4ccc(F)cc4)on3)C2(C)C)CC1	inconclusive: 3.55 µM [inhibitor, partial curve, poor fit]
CCOc1ccccc1N(C)C(=O)Cn1nc(Cc2cccnc2)c2ccccc2c1=O	inconclusive: 17.8 µM [inhibitor, single point]
COCC(=O)N1CC(CNc2ccccc2)C2(C1)CN(c1ccccc1)C2 (configuration not stated)	inconclusive: 31.6 µM [inhibitor, single point]
O=[S+]1([O-])NC2(CCN(Cc3ccccc3)CC2)COc2ccccc21	inconclusive: 7.94 µM [inhibitor, partial curve, poor fit]
O=C(c1ccccc1F)N1CC2(Cc3ccccc3NC2=O)C1	inactive
Cc1ccccc1NC(=O)c1sc2nc(N3CCOCC3)c3c(c2c1N)CC(C)(C)OC3	inconclusive: 10 µM [inhibitor, single point]
CNC(=O)N1CCC(C2CCN(C(=O)CCC3CCCC3)C2)CC1 (configuration not stated)	inactive
CCOc1ccccc1NC(=O)N1CCCN(S(=O)(=O)c2ccccc2)CCC(=O)NCC1	inconclusive: 20 µM [inhibitor, single point]
O=C(c1nnc(CNC2CCOCC2)n1Cc1ccccc1)N1CCC[C@@H]1c1ccc(Br)cc1	inconclusive: 11.2 µM [inhibitor, single point]
CCN(CC)CCNC(=O)c1cc2c(=O)[nH]c3ccc(C)cc3c2s1	inconclusive: 17.8 µM [inhibitor, single point]
CCNC(=O)N1CCC(Cc2ccc(C(=O)Nc3cccc(F)c3)cc2)CC1	inconclusive: 10 µM [inhibitor, single point]
COc1ccc(NC(=O)Cn2cccc2-c2nc(-c3ccc(F)cc3)no2)cc1Cl	active: 11.2 µM
CN1CCC2(CC1)CN(C(=O)CCc1ccccc1)Cc1ccccc1O2	active: 1 µM
CC(C)c1ccccc1NC(=O)CSc1nnc(COc2ccccc2Cl)o1	inconclusive: 0.126 µM [inhibitor, full curve, poor fit]
CN1CCN(c2nc3c(s2)CN(C(=O)c2ccccc2)CC3)CC1	inconclusive: 20 µM [inhibitor, single point]
COc1ccccc1CNC(=O)Cn1ncc2c(C)n(Cc3ccccc3Cl)c(C)c2c1=O	inconclusive: 10 µM [inhibitor, single point]
